# According to paper PMC6919601, “Identification of Plasmodium dipeptidyl aminopeptidase allosteric inhibitors by high throughput screening” (PLoS ONE, 2019):
# Hit rate of the full screen: of about 110,000 compounds, about 230 (0.21%) showed an effect of 50% or more. The list shows a part of the results.
# Molecular target: DPAP1 (Plasmodium falciparum, UniProt Q8IIJ9)
# Experiment: primary screen, percent inhibition; read by cleavage of a fluorogenic dipeptide substrate; higher = more effect of the substance
# Design: species or system P. falciparum D10 trophozoite lysates; single well
# 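Note: 30 min substrate incubation versus DMSO and 10 µM JCP410 controls.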
# DPAP1, sequence (Q8IIJ9 whole entry, looked up): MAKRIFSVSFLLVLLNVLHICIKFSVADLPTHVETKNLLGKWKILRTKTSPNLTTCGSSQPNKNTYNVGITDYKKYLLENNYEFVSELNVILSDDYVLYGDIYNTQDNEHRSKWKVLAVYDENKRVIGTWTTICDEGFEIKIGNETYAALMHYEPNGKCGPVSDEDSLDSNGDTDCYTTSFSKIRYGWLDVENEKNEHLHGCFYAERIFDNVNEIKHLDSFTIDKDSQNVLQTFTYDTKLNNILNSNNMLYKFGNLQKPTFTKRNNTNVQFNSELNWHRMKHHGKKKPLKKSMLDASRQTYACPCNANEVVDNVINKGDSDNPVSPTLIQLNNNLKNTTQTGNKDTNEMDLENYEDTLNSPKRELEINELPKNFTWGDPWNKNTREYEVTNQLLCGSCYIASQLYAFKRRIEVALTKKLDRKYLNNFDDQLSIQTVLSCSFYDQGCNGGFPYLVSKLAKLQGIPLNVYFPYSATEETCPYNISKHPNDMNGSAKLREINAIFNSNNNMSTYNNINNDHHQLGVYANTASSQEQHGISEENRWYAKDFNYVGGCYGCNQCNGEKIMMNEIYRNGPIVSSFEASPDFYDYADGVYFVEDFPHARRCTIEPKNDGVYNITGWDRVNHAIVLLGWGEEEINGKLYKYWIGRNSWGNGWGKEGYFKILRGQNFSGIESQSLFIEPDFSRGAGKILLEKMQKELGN
row,Structure (SMILES),% Inhibition @ 10 uM
1,CC1=C(C(=O)Nc2cc(C)ccn2)C(c2ccc(F)cc2)C2=C(O)CCCC2=N1 (stereo not shown),-4.65%
2,COc1ccc(-n2c(S)nnc2CCN2CCN(C)CC2)cc1,0.986%
3,COC(=O)[C@H](CC(C)C)NC(=O)[C@@H]1C[C@@H](O)CN1C#N,0.744%
4,Cc1ccc(S(=O)(=O)N2CCN(C)CC2)c(C)c1N(C)S(=O)(=O)c1ccc(Cl)cc1,2.01%
5,CN1CCN(CCN2CCn3c2nc2ccccc23)CC1,0.147%
6,CC(=O)CC(c1ccc(Br)cc1)c1c(O)oc2ccccc2c1=O (stereo not shown),4.88%
7,Cc1cc(NC(=O)Cn2nc(C(F)F)cc2C)ccc1Br,0.35%
8,Cc1ccc(-c2c(C(=O)NC3CCN(Cc4ccccc4)CC3)oc(=O)c3ccccc23)cc1,0.208%
9,COc1cc(-c2nc(-c3cc(C)nc4ccccc34)no2)cc(OC)c1OC,-6.71%
10,O=C(CSc1nc(-c2ccco2)cc(C(F)(F)F)n1)NCC1CCCO1 (stereo not shown),4.64%
11,Cc1cc(C)c2nc(N3CCC(C(=O)NCc4cccnc4)CC3)sc2c1,6.46%
12,Cc1ccc(NC(=O)c2ccc(S(=O)(=O)N3CCCCC3C)cc2)cc1 (stereo not shown),-0.641%
13,Cc1ccc2c(c1)-c1onc(C(=O)N3CCN(C)CC3)c1CO2,2.2%
14,CCOc1ccc(S(=O)(=O)Nc2ccc(S(=O)(=O)Nc3ccccc3)cc2)cc1,13.3%
15,Cc1onc(-c2c(Cl)cccc2Cl)c1C(=O)NCCc1ccc(S(N)(=O)=O)cc1,-6.87%
16,CC(C)C[C@H](NC(=O)c1cccc(CN)c1)C(=O)NCC#N,-3.97%
17,CCOc1ccc(C2SCC(=O)Nc3c2c(O)nn3C(C)CC)cc1 (stereo not shown),-0.666%
18,CCN(CC)CCN1C(=O)C(O)=C(C(=O)c2ccc(Cl)cc2)C1c1cccs1 (stereo not shown),-2.73%
19,CC(C)(C)c1[nH]nc2c1C(c1c(Cl)cccc1Cl)C(C#N)=C(N)O2 (stereo not shown),4.52%
20,CCOC(=O)C1CCCN(c2cc(C)c3cc(OC)ccc3n2)C1 (stereo not shown),-5.16%
21,CC(C)CN(CC(C)C)C(=O)c1cc(-c2ccccc2)[nH]n1,6.73%
22,CCOC(=O)N1CCC(NC(=O)Cn2ncn3nc(-c4ccco4)cc3c2=O)CC1,-2.85%
23,COc1ccc(C2C(C(=O)c3cc4ccccc4o3)=C(O)C(=O)N2c2nccs2)cc1 (stereo not shown),2.1%
24,CCOC(=O)C(=O)C(C#N)c1ccccc1 (stereo not shown),-2.14%
25,COc1ccc(C(=O)CCNC(C)C(=O)O)cc1 (stereo not shown),5.85%

row,Structure (SMILES),% Inhibition @ 10 uM
1,CCCN1CCN(C(=O)CCn2c(=O)c3cccn3c3cccnc32)CC1,3.38%
2,COC(=O)c1ccc(/N=C2/S/C(=C\c3cc(OC)c(O)cc3Br)C(=O)N2C)cc1,-1.82%
3,COc1nc(N)c2c(c1C#N)N=C1CCCC(O)=C1C2c1ccccc1 (stereo not shown),2.65%
4,CCOC(=O)/C(C#N)=C/c1cc(Cl)cc(Cl)c1O,1.87%
5,CCN1C(=O)N/C(=C/c2ccc(Sc3ccc(C)cc3)o2)C1=O,-1.33%
6,CC(C)(C)c1ccc(C2CC(=O)Oc3c2c(=O)oc2ccccc32)cc1 (stereo not shown),1.32%
7,Cc1ccccc1NC(=O)c1ccc(N(Cc2ccc(Cl)cc2)S(C)(=O)=O)cc1,-6.27%
8,CCC(=O)c1c(C)nn(-c2ccccc2)c1O,-1.37%
9,COc1ccc(Cn2c(SCc3ccc(C(=O)NCc4ccccn4)cc3)nc3cccnc32)cc1,5.38%
10,Cc1ccccc1-c1nn2c(-c3ccncc3)nnc2s1,-4.02%
11,O=C1C2C(C(=O)N1c1ccc(Cl)cc1)C1C=CC2C12CC2 (stereo not shown),3.45%
12,CCC1CCCCN1CCCNC(=O)C1c2ccccc2C(=O)N(CCOC)C1c1cccs1 (stereo not shown),-3.27%
13,Cc1ccc(C)c(NC(=O)c2ccc(Cl)cc2)c1,2.22%
14,COc1ccc(C2=NN3C(C2)c2cc(Cl)ccc2OC3(C)C)cc1 (stereo not shown),50.9%
15,CCOC(=O)C1=CN(Cc2ccc(OC)cc2)C=C(C(=O)OCC)C1c1ccc(O)c(OCC)c1,-1.48%
16,CCc1nnc2sc(-c3ccccc3C)nn12,3.88%
17,CCOc1ccc(NC(=O)c2ccccc2Br)cc1,1.63%
18,O=C(NCCc1ccc(Cl)cc1)C1CCC(CNc2c(N3CCOCC3)c(=O)c2=O)CC1 (stereo not shown),2.84%
19,C=CCN1C(=O)S/C(=C/c2cccn2-c2ccc(C(=O)O)cc2)C1=O,-4.12%
20,COc1ccccc1C1C(C(=O)c2ccc3c(c2)OCCO3)=C(O)C(=O)N1CCN(C)C (stereo not shown),-6.59%
21,COc1ccc(NC(=O)c2cnn3c2NC(c2cccs2)CC3C(F)(F)F)cc1OC (stereo not shown),0.512%
22,O=C(CCN1CCOCC1)NC12CC3CC(CC(C3)C1)C2,-6.12%
23,Cc1noc(/C=C/c2ccco2)c1S(=O)(=O)N1CCC(C(=O)N(C)Cc2ccccc2)CC1,-4.96%
24,O=C(CSc1nc(O)c2ccccc2n1)N1CCCCC1,-3.02%
25,C[C@@H](C[C@H](NC(=O)c1ccc(-c2ccccc2Cl)cc1)C(=O)NCC#N)c1ccccc1OC(F)(F)F,-4.82%

row,Structure (SMILES),% Inhibition @ 10 uM
1,Cc1ccc(-c2cc(C(=O)N(C)C3CCCCC3)n[nH]2)cc1C,1.59%
2,CCc1nc2ccccc2n2c(-c3ccc(OC)cc3)c3c(=O)n(C)c(=O)n(C)c3c12,0.315%
3,C=CCSc1ncnc2c1sc1nc(N3CCOCC3)c3c(c12)CCCC3,-3.96%
4,CCOc1cc(CN2CCN(Cc3cc(Br)ccc3OC)CC2)ccc1OC,-7.18%
5,COc1cccc(N(CC(=O)NC(C)(C)C)S(=O)(=O)c2ccccc2)c1,-3.25%
6,CC(=O)c1cccc(NC(=O)/C(=C/c2cccs2)NC(=O)c2ccc(C)c(C)c2)c1,0.851%
7,N#Cc1cc2c(nc1SCC(N)=O)CCCC2,4.47%
8,COc1ccc(NC(=O)c2ccco2)c(NC(=O)CSc2ccc(Cl)cc2)c1,-7.25%
9,Cc1csc2nc(CNS(=O)(=O)c3ccc4c(c3)OCCO4)cn12,2.57%
10,Cc1n[nH]c(SCC(=O)Nc2ccnc3ccccc23)n1,-1.11%
11,Cc1ccc(S(=O)(=O)c2cc(O)ccc2O)cc1C,-0.0369%
12,COc1ccc(C(=O)Nc2ccc(S(=O)(=O)Nc3nc(C)cc(C)n3)cc2)cc1OC,3.66%
13,COc1cccc(CNc2nc3ccccc3n3c(C)nnc23)c1,7.23%
14,O=C(O)CCCC(=O)Nc1ccc(I)cc1,-1.86%
15,COc1ccc(C(=O)ON=C2CCN(C)CC2)cc1,-1.42%
16,CC(C)Cn1c2c(c(=O)[nH]c1=O)C(NC(=O)c1ccccc1)(C(F)(F)F)C(=O)N2 (stereo not shown),-1.33%
17,Clc1ccc2[nH]c3c(c2c1)CCc1c[nH]nc1-3,-5.62%
18,CC(C)C[C@H](NC(=O)OCc1ccccc1)C(=O)N[C@H](C#N)CCCCNC(=O)OCc1ccccc1,1.71%
19,Cc1ccc(S(=O)(=O)N(CC(=O)N2CCCC2)c2cc(Cl)ccc2C)cc1,-2.75%
20,CCC(C)NC(=O)c1cc2n(n1)C(C(F)(F)F)CC(c1ccc(F)cc1)N2 (stereo not shown),0.0265%
21,CC1CCC2(CC1)NC(=O)c1ccccc1O2 (stereo not shown),4.78%
22,OCC#CCSc1nnc(-c2ccccc2Br)o1,4.96%
23,Cc1ccc(-n2ncc(C(=O)NC(C)(C)C)c2C2CCN(C(=O)OC(C)(C)C)CC2)cc1,5.57%
24,Cn1c(C(=O)O)c(CNCc2ccc3c(c2)OCO3)c2ccccc21,5.09%
25,CCCn1cnc2cc(NCc3ccncc3)ccc21,-2.67%

row,Structure (SMILES),% Inhibition @ 10 uM
1,O=C(CC(NS(=O)(=O)c1ccc(Br)cc1)c1ccco1)NC1CC1 (stereo not shown),-2.14%
2,CC1CC(=O)C2=C(C1)OC(N)=C(C#N)C2c1ccccc1Cl (stereo not shown),3.1%
3,COc1ccc(N(CC(=O)N2CCOCC2)S(=O)(=O)c2ccc(C)cc2)cc1Cl,-6.36%
4,CC1CCCN(C(=O)c2ccc(Cl)c([N+](=O)[O-])c2)C1 (stereo not shown),5.09%
5,CCCSc1ncc(Cl)c(C(=O)Nc2nnc(CCC)s2)n1,1.25%
6,O=C(Cc1ccccc1)NCc1cccc(CNC(=O)Cc2ccccc2)c1,-7.78%
7,CC(C)(C)c1cc(CN2CC=C(c3ccc(F)cc3)CC2)cc(C(C)(C)C)c1O,-3.15%
8,CCC(=O)NC(c1ccccc1)c1ccc2cccnc2c1O (stereo not shown),7.73%
9,Cc1c(C=C2C(=O)NC(=O)NC2=O)c2ccccc2n1Cc1ccc(Cl)cc1Cl,5.37%
10,CC(C)(C)NC(=O)CCc1nc(-c2ccc(Cl)cc2)no1,-1.35%
11,O=C(COc1ccc(Cl)cc1)NC1CN2CCC1CC2 (stereo not shown),2.14%
12,CCc1ccc(NC(=O)CN(c2ccc(F)cc2)S(=O)(=O)c2ccc3c(c2)OCCO3)cc1,7.42%
13,Cc1nc2sccn2c(=O)c1NC(=O)c1cccc(F)c1,13.7%
14,Cc1ccc(Cn2c(Br)nc3c2c(=O)n(C)c(=O)n3C)cc1,5.51%
15,CCCCCc1nn2cc(-c3ccc(C)cc3C)nc2s1,-6.43%
16,Cn1c(=O)c2ncn(CC(=O)Nc3ccc(O)cc3)c2n(C)c1=O,0.755%
17,CC[C@H](NC(=O)[C@H](C)NC(=O)c1cc(-c2ccccc2OC)cc(-c2ccccc2OC)c1)C(=O)c1nc2ccccc2o1,-6.56%
18,COc1cc(C(=O)Nc2nnc(CC(=O)NCc3ccccc3)s2)cc(OC)c1OC,19.6%
19,Cc1cc2ccccc2n1CCNC(=O)c1cccc2ccccc12,5.32%
20,Cn1c(=O)c2c(nc(NCC3CCCO3)n2C)n(C)c1=O (stereo not shown),1.72%
21,COCCCNC(=O)CSc1nc2nc(C)c(Cc3ccccc3C)c(C)n2n1,3.51%
22,COc1ccc(/C=c2\[nH]c(=O)/c(=C\c3ccc(OC)cc3OC)[nH]c2=O)c(OC)c1,-2.87%
